Measurements: the supplement of paper PMC4604168 (melanoma cell lines)
The list shows a part of the results. Single values are uncertain, as repeats are few or missing.
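Further: cells treated in 1,536-well plates, then fixed and DAPI-stained, with nuclei counted from automated high-throughput microscope images.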

Each molecule was assayed on LB2518-MEL (assay: cell count relative to DMSO control; melanoma cells; higher = more viable cells). Conditions: library dose: standard library concentration; 72 h.
For `CCCCCCCCc1ccc(CCC(N)(CO)CO)cc1` [fingolimod] + CC(C)CCN1c2nc(Nc3cc(F)c(O)c(F)c3)ncc2N(C)C(=O)C1C [BID1870] (first compound 10 µM, partner dose 1 µM), the cell count was 66.1%.
`NC(=O)c1ccc(N(C(N)=O)c2c(F)cccc2F)nc1-c1ccc(F)cc1F` + N#Cc1c(O)c2c(-c3ccc(-c4ccccc4O)cc3)csc2[nH]c1=O [A769662] (first compound 2 µM, partner dose 10 µM) showed a cell count of 111%.
For `CCCCCCCCc1ccc(CCC(N)(CO)CO)cc1` [fingolimod] + O=C(O)c1ccc(-c2c[nH]c3ncc(-c4ccccc4)cc23)cc1C1CCCC1 [GSK650394] (first compound 10 µM, partner dose 0.8 µM), the cell count was 0.141%.
Work on `CCCCCCCCc1ccc(CCC(N)(CO)CO)cc1` [fingolimod] + CCN(CC)CCCCNc1ncc2cc(-c3cc(OC)cc(OC)c3)c(NC(=O)NC(C)(C)C)nc2n1 [PD173074] (first compound 10 µM, partner dose 0.5 µM) yielded a cell count of 24.3%.
Molecule `NC(=O)c1ccc(N(C(N)=O)c2c(F)cccc2F)nc1-c1ccc(F)cc1F` + CCCCCCCCCCCC1=C(O)C(=O)C=C(O)C1=O [Embelin] (first compound 2 µM, partner dose 6 µM) has a cell count of 106%.
Work on `CCCCCCCCc1ccc(CCC(N)(CO)CO)cc1` [fingolimod] + O=C(Nc1ccccc1)c1cc([N+](=O)[O-])ccc1Cl [GW9662] (first compound 10 µM, partner dose 10 µM) yielded a cell count of 0.394%.
Molecule `NC(=O)c1ccc(N(C(N)=O)c2c(F)cccc2F)nc1-c1ccc(F)cc1F` + Cn1cc(/C=C2\C(=O)Nc3cccnc32)c2ccccc21 [GW441756] (first compound 2 µM, partner dose 2 µM) has a cell count of 83.5%.

The molecules below were run on LOXIMVI in the same assay as above. Conditions: library dose: standard library concentration; 72 h.
With `NC(=O)c1ccc(N(C(N)=O)c2c(F)cccc2F)nc1-c1ccc(F)cc1F` + O=C1NC(=O)/C(=C/c2ccc(-c3ccc(F)cc3O)o2)S1 [AS252424] (first compound 2 µM, partner dose 5 µM) the cell count was 153%.
In the case of `NC(=O)c1ccc(N(C(N)=O)c2c(F)cccc2F)nc1-c1ccc(F)cc1F` + COc1ccc(COc2ccc(Cc3cnc(N)nc3N)cc2OC)cc1 [GW2580] (first compound 2 µM, partner dose 5 µM), the cell count is reported as 48.3%.
Molecule `NC(=O)c1ccc(N(C(N)=O)c2c(F)cccc2F)nc1-c1ccc(F)cc1F` + O=C(O)C(=O)Nc1sc2c(c1C(=O)O)CCNC2 [TCS401] (first compound 2 µM, partner dose 8.33333 µM) has a cell count of 121%.
Work on `CC(C)(C)c1cnc(CSc2cnc(NC(=O)C3CCNCC3)s2)o1` + CC(C)CCN1c2nc(Nc3cc(F)c(O)c(F)c3)ncc2N(C)C(=O)C1C [BID1870] (first compound 0.05 µM, partner dose 1 µM) yielded a cell count of 99.5%.
`COc1cc2c(Oc3ccc4[nH]c(C)cc4c3F)ncnc2cc1OCCCN1CCCC1` [cediranib] + COc1ccc(-c2ccc3c(N4CCOCC4)nc(N4C[C@@H](C)O[C@@H](C)C4)nc3n2)cc1CO [KU0063794] (first compound 2 µM, partner dose 0.1 µM) showed a cell count of 89.8%.
With `CCc1ccc(CCOc2ccc(CC3SC(=O)NC3=O)cc2)nc1` (stereo unspecified) [pioglitazone] + Cn1cc(/C=C2\C(=O)Nc3cccnc32)c2ccccc21 [GW441756] (first compound 10 µM, partner dose 2 µM) the cell count was 101%.
Molecule `NC(=O)c1ccc(N(C(N)=O)c2c(F)cccc2F)nc1-c1ccc(F)cc1F` + O=c1cc(-c2cccc3c2Sc2ccccc2S3)oc(N2CCOCC2)c1 [KU55933] (first compound 2 µM, partner dose 5 µM) has a cell count of 88.3%.
For `CN(NC(=O)CC(=O)NN(C)C(=S)c1ccccc1)C(=S)c1ccccc1` + CCc1ccc(CCOc2ccc(CC3SC(=O)NC3=O)cc2)nc1 [pioglitazone] (first compound 0.03 µM, partner dose 10 µM), the cell count was 77.3%.
With `NC(=O)c1ccc(N(C(N)=O)c2c(F)cccc2F)nc1-c1ccc(F)cc1F` + c1cc(-c2cnn3cc(-c4ccc(OCCN5CCCCC5)cc4)cnc23)ccn1 [Dorsomorphin] (first compound 2 µM, partner dose 2 µM) the cell count was 130%.
